Test results: paper PMC5426793
These are yes or no findings as the source states them, for the method shown. Binding seen in cells or lysates may run through a third protein. Some entries that bind do so weakly or less than the wild type.

Protein sequences, listed by entry. Tags and fused reporters are not part of them.
UniProt O43791: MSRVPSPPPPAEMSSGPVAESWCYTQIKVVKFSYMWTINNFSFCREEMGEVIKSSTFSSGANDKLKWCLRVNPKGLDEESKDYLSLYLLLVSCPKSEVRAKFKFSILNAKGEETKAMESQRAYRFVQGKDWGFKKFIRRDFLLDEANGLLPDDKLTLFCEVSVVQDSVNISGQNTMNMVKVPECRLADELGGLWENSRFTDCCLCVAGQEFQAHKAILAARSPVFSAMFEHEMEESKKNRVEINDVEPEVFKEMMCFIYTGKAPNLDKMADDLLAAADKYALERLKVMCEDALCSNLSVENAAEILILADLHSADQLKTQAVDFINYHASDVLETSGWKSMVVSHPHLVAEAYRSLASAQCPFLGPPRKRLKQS

Molecular target: FLAG-SPOP (lentivirus, LNCaP) (UniProt O43791)
Experiment: co-IP; LNCaP cells infected with lentivirus expressing FLAG-SPOP or control, 20 μM MG132 for 8 h before harvesting; anti-FLAG antibody; endogenous partners by Western blot

binding: binds
B1: DEK (endogenous, LNCaP) (protein, UniProt P35659 1-375)
chain: MSASAPAAEGEGTPTQPASEKEPEMPGPREESEEEEDEDDEEEEEEEKEKSLIVEGKREKKKVERLTMQVSSLQREPFTIAQGKGQKLCEIERIHFFLSKKKTDELRNLHKLLYNRPGTVSSLKKNVGQFSGFPFEKGSVQYKKKEEMLKKFRNAMLKSICEVLDLERSGVNSELVKRILNFLMHPKPSGKPLPKSKKTCSKGSKKERNSSGMARKAKRTKCPEILSDESSSDEDEKKNKEESSDDEDKESEEEPPKKTAKREKPKQKATSKSKKSVKSANVKKADSSTTKKNQNSSKKESESEDSSDDEPLIKKLKKPPTDEELKETIKKLLASANLEEVTMKQICKKVYENYPTYDLTERKDFIKTTVKELIS
